Source: the supplement of paper PMC12645437, “Orthogonal IMiD-Degron Pairs Induce Selective Protein Degradation in Cells” (ACS Chemical Biology, 2025)
Some of the results follow.

B1: Q9UKT9 (peptide)
chain: FMCNQCGHRFTQKGNLLRHIKL
B2: Q9UKT9 (peptide)
chain: FRCEQCGAFFTQKGNLLRHIKL
B3: Q9UKT9 (peptide)
chain: FYCPQCGAMFTQKGNLLRHIKL
B4: Q9UKT9 (peptide)
chain: FFCPICGAWFTQKGNLLRHIKL
B5: Q9UKT9 (peptide)
chain: LICNQCGFKCTQKGNLLRHIKL
B6: Q9UKT9 (peptide)
chain: FNCPICGHTFTQKGNLLRHIKL
B7: Q9UKT9 (peptide)
chain: FDCPICGAYFTQKGNLLRHIKL
B8: Q9UKT9 (peptide)
chain: FRCNVCGATFTQKGNLLRHIKL
B9: Q9UKT9 (peptide)
chain: FHCEVCGAGFTQKGNLLRHIKL
B10: Q9UKT9 (peptide)
chain: FSCDQCGAVFTQKGNLLRHIKL
B11: Q9UKT9 (peptide)
chain: FACDICGANFTQKGNLLRHIKL
B12: Q9UKT9 (peptide)
chain: FHCPVCGAPFTQKGNLLRHIKL
B13: Q9UKT9 (peptide)
chain: FICNQCGATFTQKGNLLRHIKL
B14: Q9UKT9 (peptide)
chain: FKCEVCGASFTQKGNLLRHIKL
B15: Q9UKT9 (peptide)
chain: FACEQCGARFTQKGNLLRHIKL
B16: Q9UKT9 (peptide)
chain: FMCEVCGACFTQKGNLLRHIKL
B17: Q9UKT9 (peptide)
chain: LTCEICGFYCTQKGNLLRHIKL
B18: Q9UKT9 (peptide)
chain: FCCPICGREFTQKGNLLRHIKL
B19: Q9UKT9 (peptide)
chain: FYCEICGAMFTQKGNLLRHIKL
B20: Q9UKT9 (peptide)
chain: FCCNQCGAEFTQKGNLLRHIKL
B21: Q9UKT9 (peptide)
chain: LNCNQCGFVCTQKGNLLRHIKL
B22: Q9UKT9 (peptide)
chain: FVCNVCGAKFTQKGNLLRHIKL
B23: Q9UKT9 (peptide)
chain: LYCNQCGFPCTQKGNLLRHIKL
B24: Q9UKT9 (peptide)
chain: FICNICGADFTQKGNLLRHIKL
B25: Q9UKT9 (peptide)
chain: FWCEICGRQFTQKGNLLRHIKL
B26: Q9UKT9 (peptide)
chain: FVCDICGAEFTQKGNLLRHIKL
B27: Q9UKT9 (peptide)
chain: FFCSVCGHHFTQKGNLLRHIKL
B28: Q9UKT9 (peptide)
chain: FNCPICGALFTQKGNLLRHIKL
B29: Q9UKT9 (peptide)
chain: LGCEICGFDCTQKGNLLRHIKL
B30: Q9UKT9 (peptide)
chain: FCCEICGRMFTQKGNLLRHIKL
B31: Q9UKT9 (peptide)
chain: LACEICGFDCTQKGNLLRHIKL
B32: Q9UKT9 (peptide)
chain: FFCNICGASFTQKGNLLRHIKL
B33: Q9UKT9 (peptide)
chain: FCCNICGAKFTQKGNLLRHIKL
B34: Q9UKT9 (peptide)
chain: LQCNQCGFFCTQKGNLLRHIKL
B35: Q9UKT9 (peptide)
chain: FKCSVCGHQFTQKGNLLRHIKL
B36: Q9UKT9 (peptide)
chain: FWCNICGATFTQKGNLLRHIKL
B37: Q9UKT9 (peptide)
chain: FFCDQCGARFTQKGNLLRHIKL
B38: Q9UKT9 (peptide)
chain: LCCPICGFTCTQKGNLLRHIKL
B39: Q9UKT9 (peptide)
chain: FQCNQCGHKFTQKGNLLRHIKL
B40: Q9UKT9 (peptide)
chain: LRCNQCGFLCTQKGNLLRHIKL
B41: Q9UKT9 (peptide)
chain: FNCNQCGRSFTQKGNLLRHIKL
B42: Q9UKT9 (peptide)
chain: FRCNVCGANFTQKGNLLRHIKL
B43: Q9UKT9 (peptide)
chain: FICDICGAFFTQKGNLLRHIKL
B44: Q9UKT9 (peptide)
chain: FACDICGAGFTQKGNLLRHIKL
B45: Q9UKT9 (peptide)
chain: FQCPICGRFFTQKGNLLRHIKL
B46: Q9UKT9 (peptide)
chain: FICEICGAHFTQKGNLLRHIKL
B47: Q9UKT9 (peptide)
chain: FMCSVCGHNFTQKGNLLRHIKL
B48: Q9UKT9 (peptide)
chain: FACDQCGAFFTQKGNLLRHIKL
B49: Q9UKT9 (peptide)
chain: FNCPICGHEFTQKGNLLRHIKL
B50: Q9UKT9 (peptide)
chain: FGCNQCGAVFTQKGNLLRHIKL

Molecular target: no compound (DMSO)
Assay: log2 fold change of degron read counts, EGFP-low vs EGFP+ sorted cells; higher = lower degron-EGFP level without compound (poor expression or instability)
Conditions: compound: DMSO control; 18 h
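Also: jurkat cells carrying a lentiviral library of mutant zinc finger degrons fused to EGFP plus mCherry, mCherry+ cells FACS sorted, degron abundance counted by next-generation sequencing.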

Row | Sequence | log2 fold change of degron read counts
1 | B1 | -0.918
2 | B2 | -0.762
3 | B3 | 0.157
4 | B4 | 1.47
5 | B5 | -0.327
6 | B6 | -0.693
7 | B7 | -0.294
8 | B8 | -0.602
9 | B9 | -1.2
10 | B10 | -1.05
11 | B11 | -1.89
12 | B12 | 0.00757
13 | B13 | -1.14
14 | B14 | -1.77
15 | B15 | -1.84
16 | B16 | -1.57
17 | B17 | 0.868
18 | B18 | -0.872
19 | B19 | -0.521
20 | B20 | -1.97
21 | B21 | 0.897
22 | B22 | -0.456
23 | B23 | 0.873
24 | B24 | -0.607
25 | B25 | -0.694

Row | Sequence | log2 fold change of degron read counts
26 | B26 | -2.24
27 | B27 | 0.753
28 | B28 | -0.0694
29 | B29 | -0.253
30 | B30 | -0.744
31 | B31 | -0.83
32 | B32 | 0.331
33 | B33 | -1.73
34 | B34 | 0.614
35 | B35 | -0.96
36 | B36 | -0.12
37 | B37 | -1.45
38 | B38 | 0.626
39 | B39 | -0.505
40 | B40 | 1.2
41 | B41 | -0.12
42 | B42 | -1.06
43 | B43 | -0.453
44 | B44 | -1.41
45 | B45 | -0.0784
46 | B46 | -2.24
47 | B47 | -0.296
48 | B48 | -0.975
49 | B49 | -0.786
50 | B50 | 0.281
